Experimental findings from paper PMC12820563 are described below.

The list shows a part of the results. The list includes weakly bound sequences.

The assay concerns the target T1, MBP-FoxP3dN (UniProt Q99JB6).
T1 sequence: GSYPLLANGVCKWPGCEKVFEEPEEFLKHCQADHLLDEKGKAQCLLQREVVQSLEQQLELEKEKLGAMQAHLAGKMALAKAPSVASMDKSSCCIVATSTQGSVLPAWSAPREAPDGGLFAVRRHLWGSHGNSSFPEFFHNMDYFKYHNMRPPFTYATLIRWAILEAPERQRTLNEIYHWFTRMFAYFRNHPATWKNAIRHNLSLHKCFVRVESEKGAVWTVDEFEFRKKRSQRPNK
Put plainly: PD-seq (MBP pull-down with sequencing). The following applies: 20 mM Tris-HCl pH 7.5, 100 mM NaCl, 1.5 mM MgCl2, 0.4 uM protein, 0.1 uM dsDNA library, 30 min, room temperature, amylose pull-down; high values mean tight binding; double strand, one strand shown.
With “GATGATTGTTCTCCCAGCTGATGAATTAATGTCGTCGAGTAAACAAATTTTCCTAATCTTTCTGTTCAAGCGCCATCTAC”, the binding signal (RPM ratio (pull-down/input)) is 0.846. For “GATGATTGTTCTCCCAGCTGATGAATTCTCTCATTCGAGTAAACAAATTTTCCTAATCTTTCTGTTCAAGCGCCATCTAC”, the binding signal (RPM ratio (pull-down/input)) came out at 0.299. The same measure for “GATGATTGTTCTCCCAGCTGATGAATTGACCGCATCGAGTAAACAAATTTTCCTAATCTTTCTGTTCAAGCGCCATCTAC”: 0.887; for “GATGATTGTTCTCCCAGCTGATGAATTGTGAATGTCGAGTAAACAAATTTTCCTAATCTTTCTGTTCAAGCGCCATCTAC”: 1.32; for “GATGATTGTTCTCCCAGCTGATGAATTAAGCCCGTCGAGTAAACAAATTTTCCTAATCTTTCTGTTCAAGCGCCATCTAC”: 1.27. In the case of “GATGATTGTTCTCCCAGCTGATGAATTATATCATTCGAGTAAACAAATTTTCCTAATCTTTCTGTTCAAGCGCCATCTAC” it was 1.65.

For the sequence “GATGATTGTTCTCCCAGCTGATGAATTGGCATACTCGAGTAAACAAATTTTCCTAATCTTTCTGTTCAAGCGCCATCTAC”, the binding signal (RPM ratio (pull-down/input)) stood at 0.986. For the sequence “GATGATTGTTCTCCCAGCTGATGAATTTATGGCGTCGAGTAAACAAATTTTCCTAATCTTTCTGTTCAAGCGCCATCTAC”, the binding signal (RPM ratio (pull-down/input)) turned out to be 1.37. In the case of “GATGATTGTTCTCCCAGCTGATGAATTCCTACACTCGAGTAAACAAATTTTCCTAATCTTTCTGTTCAAGCGCCATCTAC” it was 0.302; in that of “GATGATTGTTCTCCCAGCTGATGAATTCACGTGCTCGAGTAAACAAATTTTCCTAATCTTTCTGTTCAAGCGCCATCTAC”, 0.404; in that of “GATGATTGTTCTCCCAGCTGATGAATTCCGCAAATCGAGTAAACAAATTTTCCTAATCTTTCTGTTCAAGCGCCATCTAC”, 0.692. As to “GATGATTGTTCTCCCAGCTGATGAATTACGATGCTCGAGTAAACAAATTTTCCTAATCTTTCTGTTCAAGCGCCATCTAC”, the binding signal (RPM ratio (pull-down/input)) is 1. In the case of “GATGATTGTTCTCCCAGCTGATGAATTCCATTCCTCGAGTAAACAAATTTTCCTAATCTTTCTGTTCAAGCGCCATCTAC” it was 0.41; in that of “GATGATTGTTCTCCCAGCTGATGAATTACAGTCGTCGAGTAAACAAATTTTCCTAATCTTTCTGTTCAAGCGCCATCTAC”, 0.651.

For the sequence “GATGATTGTTCTCCCAGCTGATGAATTAGCCTTATCGAGTAAACAAATTTTCCTAATCTTTCTGTTCAAGCGCCATCTAC”, the binding signal (RPM ratio (pull-down/input)) was 0.706.

On to “GATGATTGTTCTCCCAGCTGATGAATTTTTAACCTCGAGTAAACAAATTTTCCTAATCTTTCTGTTCAAGCGCCATCTAC”, for which the binding signal (RPM ratio (pull-down/input)) is 0.204. In the case of “GATGATTGTTCTCCCAGCTGATGAATTGGTGCGCTCGAGTAAACAAATTTTCCTAATCTTTCTGTTCAAGCGCCATCTAC” it was 0.687; in that of “GATGATTGTTCTCCCAGCTGATGAATTCGGTTCCTCGAGTAAACAAATTTTCCTAATCTTTCTGTTCAAGCGCCATCTAC”, 1.1. Regarding “GATGATTGTTCTCCCAGCTGATGAATTTGCCTAGTCGAGTAAACAAATTTTCCTAATCTTTCTGTTCAAGCGCCATCTAC”, the binding signal (RPM ratio (pull-down/input)) worked out at 0.539. The same measure for “GATGATTGTTCTCCCAGCTGATGAATTGCTGAGATCGAGTAAACAAATTTTCCTAATCTTTCTGTTCAAGCGCCATCTAC”: 0.43. Take “GATGATTGTTCTCCCAGCTGATGAATTGATGCGTTCGAGTAAACAAATTTTCCTAATCTTTCTGTTCAAGCGCCATCTAC”: the binding signal (RPM ratio (pull-down/input)) is 3.5. The same measure for “GATGATTGTTCTCCCAGCTGATGAATTACGAGAATCGAGTAAACAAATTTTCCTAATCTTTCTGTTCAAGCGCCATCTAC”: 0.23; for “GATGATTGTTCTCCCAGCTGATGAATTGGCAAACTCGAGTAAACAAATTTTCCTAATCTTTCTGTTCAAGCGCCATCTAC”: 0.397; for “GATGATTGTTCTCCCAGCTGATGAATTTGTCTGGTCGAGTAAACAAATTTTCCTAATCTTTCTGTTCAAGCGCCATCTAC”: 3.6. In the case of “GATGATTGTTCTCCCAGCTGATGAATTGATAATTTCGAGTAAACAAATTTTCCTAATCTTTCTGTTCAAGCGCCATCTAC” it was 0.378; in that of “GATGATTGTTCTCCCAGCTGATGAATTATATGCTTCGAGTAAACAAATTTTCCTAATCTTTCTGTTCAAGCGCCATCTAC”, 0.889; in that of “GATGATTGTTCTCCCAGCTGATGAATTTGACAAATCGAGTAAACAAATTTTCCTAATCTTTCTGTTCAAGCGCCATCTAC”, 0.223.

In the case of “GATGATTGTTCTCCCAGCTGATGAATTATCGTTCTCGAGTAAACAAATTTTCCTAATCTTTCTGTTCAAGCGCCATCTAC”, the binding signal (RPM ratio (pull-down/input)) is 0.654.

On to “GATGATTGTTCTCCCAGCTGATGAATTCTCCAGTTCGAGTAAACAAATTTTCCTAATCTTTCTGTTCAAGCGCCATCTAC”, for which the binding signal (RPM ratio (pull-down/input)) was found to be 0.204.

On to “GATGATTGTTCTCCCAGCTGATGAATTTGCAGATTCGAGTAAACAAATTTTCCTAATCTTTCTGTTCAAGCGCCATCTAC”, for which the binding signal (RPM ratio (pull-down/input)) was determined as 0.409. In the case of “GATGATTGTTCTCCCAGCTGATGAATTCCTTCGTTCGAGTAAACAAATTTTCCTAATCTTTCTGTTCAAGCGCCATCTAC” it was 0.24; in that of “GATGATTGTTCTCCCAGCTGATGAATTTTGTCATTCGAGTAAACAAATTTTCCTAATCTTTCTGTTCAAGCGCCATCTAC”, 4.89; in that of “GATGATTGTTCTCCCAGCTGATGAATTGATAAGATCGAGTAAACAAATTTTCCTAATCTTTCTGTTCAAGCGCCATCTAC”, 0.26. In the case of “GATGATTGTTCTCCCAGCTGATGAATTGGGAGATTCGAGTAAACAAATTTTCCTAATCTTTCTGTTCAAGCGCCATCTAC” it was 0.372.

Take “GATGATTGTTCTCCCAGCTGATGAATTGAGTGAGTCGAGTAAACAAATTTTCCTAATCTTTCTGTTCAAGCGCCATCTAC”: the binding signal (RPM ratio (pull-down/input)) was 0.621. In the case of “GATGATTGTTCTCCCAGCTGATGAATTACGCATGTCGAGTAAACAAATTTTCCTAATCTTTCTGTTCAAGCGCCATCTAC” it was 6.15.

For the sequence “GATGATTGTTCTCCCAGCTGATGAATTTCTACCGTCGAGTAAACAAATTTTCCTAATCTTTCTGTTCAAGCGCCATCTAC”, the binding signal (RPM ratio (pull-down/input)) stood at 0.222. In the case of “GATGATTGTTCTCCCAGCTGATGAATTACAGTGGTCGAGTAAACAAATTTTCCTAATCTTTCTGTTCAAGCGCCATCTAC” it was 0.54; in that of “GATGATTGTTCTCCCAGCTGATGAATTACAGTGCTCGAGTAAACAAATTTTCCTAATCTTTCTGTTCAAGCGCCATCTAC”, 0.611; in that of “GATGATTGTTCTCCCAGCTGATGAATTCCCCTGGTCGAGTAAACAAATTTTCCTAATCTTTCTGTTCAAGCGCCATCTAC”, 0.17. The same measure for “GATGATTGTTCTCCCAGCTGATGAATTCCCTGGGTCGAGTAAACAAATTTTCCTAATCTTTCTGTTCAAGCGCCATCTAC”: 0.187; for “GATGATTGTTCTCCCAGCTGATGAATTTCTGTGATCGAGTAAACAAATTTTCCTAATCTTTCTGTTCAAGCGCCATCTAC”: 0.408.

With “GATGATTGTTCTCCCAGCTGATGAATTCTTCCACTCGAGTAAACAAATTTTCCTAATCTTTCTGTTCAAGCGCCATCTAC”, the binding signal (RPM ratio (pull-down/input)) was found to be 0.293.

On to “GATGATTGTTCTCCCAGCTGATGAATTTCGGGGATCGAGTAAACAAATTTTCCTAATCTTTCTGTTCAAGCGCCATCTAC”, for which the binding signal (RPM ratio (pull-down/input)) stood at 0.288. In the case of “GATGATTGTTCTCCCAGCTGATGAATTATCTGCGTCGAGTAAACAAATTTTCCTAATCTTTCTGTTCAAGCGCCATCTAC” it was 0.58; in that of “GATGATTGTTCTCCCAGCTGATGAATTGGAGCGCTCGAGTAAACAAATTTTCCTAATCTTTCTGTTCAAGCGCCATCTAC”, 0.319. The same measure for “GATGATTGTTCTCCCAGCTGATGAATTATCAACCTCGAGTAAACAAATTTTCCTAATCTTTCTGTTCAAGCGCCATCTAC”: 0.366; for “GATGATTGTTCTCCCAGCTGATGAATTCCTCAGATCGAGTAAACAAATTTTCCTAATCTTTCTGTTCAAGCGCCATCTAC”: 0.195; for “GATGATTGTTCTCCCAGCTGATGAATTAACACGATCGAGTAAACAAATTTTCCTAATCTTTCTGTTCAAGCGCCATCTAC”: 0.335. “GATGATTGTTCTCCCAGCTGATGAATTTTGATATTCGAGTAAACAAATTTTCCTAATCTTTCTGTTCAAGCGCCATCTAC”: the binding signal (RPM ratio (pull-down/input)) is 3.34. As to “GATGATTGTTCTCCCAGCTGATGAATTAATGGCATCGAGTAAACAAATTTTCCTAATCTTTCTGTTCAAGCGCCATCTAC”, the binding signal (RPM ratio (pull-down/input)) was 1.12. In the case of “GATGATTGTTCTCCCAGCTGATGAATTCTTCCAGTCGAGTAAACAAATTTTCCTAATCTTTCTGTTCAAGCGCCATCTAC” it was 0.207; in that of “GATGATTGTTCTCCCAGCTGATGAATTTAGAGTTTCGAGTAAACAAATTTTCCTAATCTTTCTGTTCAAGCGCCATCTAC”, 1.41; in that of “GATGATTGTTCTCCCAGCTGATGAATTCCAGGACTCGAGTAAACAAATTTTCCTAATCTTTCTGTTCAAGCGCCATCTAC”, 0.223. The same measure for “GATGATTGTTCTCCCAGCTGATGAATTCCGGATCTCGAGTAAACAAATTTTCCTAATCTTTCTGTTCAAGCGCCATCTAC”: 0.23. The same measure for “GATGATTGTTCTCCCAGCTGATGAATTCTTGTACTCGAGTAAACAAATTTTCCTAATCTTTCTGTTCAAGCGCCATCTAC”: 0.415; for “GATGATTGTTCTCCCAGCTGATGAATTTATGCGTTCGAGTAAACAAATTTTCCTAATCTTTCTGTTCAAGCGCCATCTAC”: 2.61; for “GATGATTGTTCTCCCAGCTGATGAATTTCCCTATTCGAGTAAACAAATTTTCCTAATCTTTCTGTTCAAGCGCCATCTAC”: 0.314. Consider “GATGATTGTTCTCCCAGCTGATGAATTGCCAGATTCGAGTAAACAAATTTTCCTAATCTTTCTGTTCAAGCGCCATCTAC”, for which the binding signal (RPM ratio (pull-down/input)) came out at 0.409. The same measure for “GATGATTGTTCTCCCAGCTGATGAATTTGGGTTGTCGAGTAAACAAATTTTCCTAATCTTTCTGTTCAAGCGCCATCTAC”: 1.1; for “GATGATTGTTCTCCCAGCTGATGAATTGATTAACTCGAGTAAACAAATTTTCCTAATCTTTCTGTTCAAGCGCCATCTAC”: 0.37; for “GATGATTGTTCTCCCAGCTGATGAATTCAATTATTCGAGTAAACAAATTTTCCTAATCTTTCTGTTCAAGCGCCATCTAC”: 2.26. The same measure for “GATGATTGTTCTCCCAGCTGATGAATTCATTGATTCGAGTAAACAAATTTTCCTAATCTTTCTGTTCAAGCGCCATCTAC”: 1.18.
